Reference: PubChem BioAssay AID288 (DTP/NCI, 2004)
Results filed as inconclusive are left out. Some entries of the source have several records that differ or are many. Only these are listed. The source may hold further records. The records of an entry differ for a reason that is not stated; dose, time, organism, isomer or construct need not be as stated for each record.

Test system: BDF1 mice, M5076 sarcoma s.c., survival/tumor T/C
Experiment: NCI In Vivo Anticancer Drug Screen. Data for tumor model Sarcoma M5076 (subcutaneous) in B6D2F1 (BDF1) mice
Conditions: endpoint: median survival time; dose: 38.9 mg/kg/injection; schedule: Q01DX017 (sc); vehicle: Klucel (hydroxypropylcellulose) (HPC); higher = longer survival
Method: The antitumor activity of compounds was measured in mice bearing transplantable tumors. Survival or tumor size were measured and the results are expressed as the measurement made in the treated group (T) divided by the measurement made in the vehicle treated control group (C). The tumor model used in this assay is Sarcoma M5076 (subcutaneous) in B6D2F1 (BDF1) mice

For `CC1(CO)C(O)CCC2(C)C1CCC1CC3CC12CCC3(O)CO` (stereo unspecified), which T/C is on record?
The T/C was 121 % of control and 160 % of control.
